According to PubChem BioAssay AID463173 (ICCB-Longwood Screening Facility, Harvard Medical School, 2010):
Among all 52,000 compounds or so, about 4,300 (8.3%) were called active. No stated cut-off is given here; in the data, active means survival mostly below about 52% (no sharp cut-off); inactive means mostly above about 56%. Some of the results follow.

tested on: DeltatarO mutant; test: growth inhibition of S. aureus wild type versus tarO mutant, primary screen, teichoic acid synthesis inhibitors, RN4220, OD600 (AID 463173); details: OD600, 18 h, active compounds read low, screened at 18.75 µg/mL (by protocol)

SMILES | survival
Cc1ccc(N2CC(NC(=O)c3ccccc3C(F)(F)F)CC2=O)cc1C (centres undefined) | inactive: 55%
COc1ccc(Cl)cc1S(=O)(=O)Nc1ccc2[nH]c(=O)[nH]c2c1 | inactive: 94%
Clc1ccc2c(c1)-n1cc(-c3ccccc3)nc1CO2 | inactive: 71%
CCc1ccc(S(=O)(=O)c2cn(Cc3ccccc3)c3cc(N4CCCC4)c(F)cc3c2=O)cc1 | inactive: 99%
COc1ccc(NC(=O)CSc2oc(-c3cccs3)nc2S(=O)(=O)c2ccccc2)c(OC)c1 | inactive: 69%
Cc1ccc(Cl)cc1N1CCN(C(=O)CCS(=O)(=O)c2cc(Br)cc3c2N(C(=O)C2CC2)CC3)CC1 | inactive: 61%
O=C(Nc1ccc(C(=O)OCc2cc(=O)n3nc(C4CC4)sc3n2)cc1)c1ccccc1 | inactive: 83%
Cc1cccc(CNC(=O)c2cc3cc(S(=O)(=O)N4CCCCC4)ccc3n2C)c1 | inactive: 87%
Cc1ccc(CCNC(=O)Cn2c(-c3cccs3)cc3ccccc32)cc1 | inactive: 105%
Cc1ccc(NC(=O)CN2C=NS(=O)(=O)c3ccccc32)cc1 | inactive: 76%
CCOC(=O)COc1ccc(CC)cc1C(=O)c1ccn2nc(-c3ccc(F)cc3)cc2n1 | inactive: 73%
COc1ccc(-c2noc(CC(=O)N(C)c3cccc(C)c3)n2)cc1 | inactive: 68%
O=C(Cc1ccccc1)Nc1cccnc1 | inactive: 105%
COc1ccc(C(=O)c2cn(Cc3ccccc3F)c3cc4c(cc3c2=O)OCCO4)cc1OC | inactive: 82%
O=C(Nc1ccc2c(c1)CCCN2C(=O)c1cccs1)c1ccc(F)c(F)c1 | inactive: 80%
Cc1ccc(-c2c3c(=O)n(C)c(=O)n(C)c3c3n2-c2ccccc2NC3c2ccc(C)cc2O)cc1 (centres undefined) | active: 2%
COc1cccc(C(c2nnnn2CCC(C)C)N2CCN(Cc3ccccc3)CC2)c1OC (centres undefined) | inactive: 101%
CCOc1ccc(OCC)c(NC(=O)c2nnn(CC(=O)Nc3cc(Cl)ccc3OC)c2N)c1 | inactive: 71%
COc1ccc(-c2cc(C(=O)N3CCCCC3C)no2)cc1OC (centres undefined) | active: 58%
Cc1ccccc1NC(=O)C1CCN(S(=O)(=O)c2c(C)noc2/C=C/c2ccco2)CC1 | inactive: 67%
COc1ccc(C(=O)NCc2ccc3c(c2)CCN3C(C)=O)c(OC)c1 | inactive: 115%
CCC(=O)N1CCc2cc(CNC(=O)c3cccc(N(C)C)c3)ccc21 | inactive: 84%
Cc1ccc(Cn2c(SCc3ccc(C(=O)N4CCCCC4)cc3)nc3ccncc32)cc1 | active: 7%

SMILES | survival
CCc1ccccc1N1C(=O)CN(S(=O)(=O)CC)CC1(C)C(=O)NC1CCCCC1 (centres undefined) | inactive: 102%
CCc1ccccc1NC(=O)Cn1nc(CC)n2c(cc3sccc32)c1=O | inactive: 85%
CCOc1ccccc1NC(=O)Nc1nnc(N2CCCC(C)C2)s1 (centres undefined) | inactive: 86%
O=C(c1ccc(Cl)cc1)N1CCN(CCc2ccncc2)CC1 | inactive: 103%
Cc1ccc(Cl)cc1N1CCN(S(=O)(=O)c2cn(C)c(C)n2)CC1 | inactive: 57%
CCOc1ccccc1C1C(C(=O)Nc2ccccc2)=C(C)Nc2nc(SCC(=O)c3ccc(C)cc3)nn21 (centres undefined) | inactive: 77%
CC1CCCCN1CCCNC(=O)CN1C(=O)c2cccnc2Oc2ccc(Cl)cc21 (centres undefined) | inactive: 98%
COc1ccc(C(=O)c2sc3nc4c(c(C(F)(F)F)c3c2N)CN(C(C)=O)CC4)cc1OC | inactive: 77%
CN(C(=O)CSc1nc(-c2ccccc2)no1)c1ccc(F)cc1 | inactive: 96%
CCc1ccc(NC(=O)CSc2nc3c(c(=O)[nH]2)CN(Cc2ccc4c(c2)OCO4)CC3)cc1 | inactive: 74%
Fc1ccc(C(c2nnnn2C2CCCC2)N2CCc3ccccc32)cc1 (centres undefined) | inactive: 79%
CN(C)N=Nc1ccc(-c2cn(Cc3ccccc3)cn2)cc1 | inactive: 68%
N#Cc1ccc(N2CCCCC2)cc1 | inactive: 95%
O=C(COc1ccccc1)NCC(c1ccc(Cl)cc1)N1CCCCC1 (centres undefined) | inactive: 77%
O=C(CCCc1ccccc1)NC1CC(=O)N(c2cccc(F)c2)C1 (centres undefined) | inactive: 120%
Cc1ccc(C)c(N2CCN(S(=O)(=O)c3c(C(=O)N4CCC(C)CC4)c(C)n(C)c3C)CC2)c1 | inactive: 94%
CCOC(=O)c1cc2c(=O)n3ccccc3nc2n(C)c1=NC(=O)c1c(-c2c(F)cccc2Cl)noc1C | inactive: 182%
O=C(Nc1ccc(Br)c(Cl)c1)c1ccc(C(=O)Nc2ccc(Br)c(Cl)c2)cc1 | inactive: 135%
CCOc1ccc(CNC(=O)C2CCN(C(=O)c3ccc(-n4ccc5ccccc54)s3)CC2)cc1 | inactive: 115%
Cc1cccc(NC(=O)Cn2c(=O)n(CCCCCC(=O)NCc3ccccc3)c(=O)c3sccc32)c1 | inactive: 62%
O=C(NCc1ccccc1Cl)c1ccccc1NC(=O)c1nsc2ccccc12 | inactive: 76%
COc1cc(OC)c(NC(=O)c2cnn(-c3ccccc3)c2-n2cccc2)cc1Cl | inactive: 84%
CCOc1cc(-c2nc(-c3ccc(-c4ccccc4)nc3OCC)no2)cc(OCC)c1OCC | inactive: 53%

SMILES | survival
COCCCNC(=O)c1cc2c(-c3cccc(OC)c3)nn(C)c2s1 | inactive: 68%
O=C(CSc1nccn1Cc1ccc(Cl)cc1)Nc1nc2ccccc2s1 | active: 32%
CCC(=O)N1CCc2cc(Br)cc(S(=O)(=O)Nc3ccccc3C(=O)OC)c21 | inactive: 135%
COc1ccc(N2CCN(C(=O)c3cc4c(=O)n(Cc5ccco5)ccc4nc3C)CC2)cc1 | inactive: 73%
Cc1ccccc1CCNC(=O)c1ccc(Cn2c(=O)c3cccn3c3cccnc32)cc1 | inactive: 64%
CCc1ccc(NC(=O)c2cc(S(=O)(=O)N3CCCC(C)C3)cn2C)cc1 (centres undefined) | inactive: 76%
COc1ccccc1CNC(=O)C(=O)NCC(c1ccco1)S(=O)(=O)c1ccc(C)cc1 (centres undefined) | inactive: 88%
COC(=O)C1=C(C)N(C(C)C)C(=O)C1(NC(=O)c1ccccc1OC)C(F)(F)F (centres undefined) | inactive: 76%
CCCCCn1c(CCCNC(=O)c2ccc(Cl)cc2)nc2ccccc21 | inactive: 85%
COc1ccc(-c2nc(C(=O)Nc3cccc(C(C)=O)c3)nn2-c2ccccc2Cl)cc1 | inactive: 59%
COc1ccc(CNC(=O)CCc2nnc3n(C)c(=O)c4sccc4n23)cc1 | inactive: 180%
CCn1c(SCC(=O)Nc2c(C)cccc2C)nnc1-c1nonc1NC(C)=O | inactive: 121%
O=C(NCCC1=CCCCC1)c1ccc2c(c1)N(Cc1ccccc1)C(=O)c1ccccc1S2=O (centres undefined) | inactive: 70%
CCOC(=O)c1[nH]c(=O)[nH]c1CSC(=N)N | inactive: 88%
CN(C)C(=O)C1Cc2ccccc2CN1S(=O)(=O)c1ccc(F)cc1 (centres undefined) | inactive: 116%
COc1ccc(CCN(Cc2cc3cc(C)ccc3[nH]c2=O)C(=O)N2CCCC2)cc1OC | inactive: 82%
Cc1ccc(C(=O)N2CCCCC2CCN2CCCCC2)cc1 (centres undefined) | inactive: 76%
CCOC(=O)c1c(NC(=O)c2ccc(S(=O)(=O)N(CC)CC)cc2)sc2c1CCCCC2 | inactive: 72%
O=C(Nc1cccc(C(F)(F)F)c1)Nc1ccc2snnc2c1 | active: 11%
CCc1nn(CC(=O)NCCOC)c(=O)c2cc3cc(F)ccc3n12 | inactive: 111%
Cc1cc(S(=O)(=O)Nc2ccc(O)c(Sc3nc4ccccc4s3)c2)ccc1Cl | active: -1%
CCOC(=O)c1ccc(Nc2nc3nonc3nc2NCc2ccco2)cc1 | active: 5%
CN(C)c1ccc(C(CNS(=O)(=O)c2ccc(F)cc2F)N2CCOCC2)cc1 (centres undefined) | inactive: 69%

SMILES | survival
CCc1ccc(CN(Cc2cn[nH]c2-c2ccc(OC)cc2)C(=O)Nc2ccc(Br)cc2)cc1 | inactive: 85%
CCN(CC)C(=O)CSc1nc2cc3c(cc2c(=O)n1CCCC(=O)NCc1ccc(OC)cc1)OCO3 | inactive: 71%
CCN(CCCNC(=O)c1nn(-c2ccc(OC)c(Cl)c2)c(=O)c2c1c1ccccc1n2C)c1ccccc1 | inactive: 83%
Cc1ccc(-c2csc(C(C#N)=C3CCCC3)n2)cc1 | inactive: 88%
CC1(C)OC(=O)CC1C(=O)O (centres undefined) | inactive: 75%
CC1CCN(C(=O)Cn2c(SCC(=O)Nc3ccc(F)cc3)nc3ccccc32)CC1 | inactive: 96%
COc1ccc(OC)c(CNC(=O)CSc2c3c(nc4cc(Cl)ccc24)CCCC3)c1 | inactive: 68%
O=C(O)c1ccc2c3c(ncnc13)-c1ccccc1C2=O | inactive: 58%
COc1ccc(-c2csc(-c3c(N)c(C(=O)c4ccccc4)n4ccccc34)n2)cc1OC | active: 43%
CCS(=O)(=O)c1cccc(C(=O)Nc2ccc(-c3nc4ccccc4s3)c(O)c2)c1 | inactive: 85%
Cc1cccc(NC(=O)Cn2c(=O)c3cccn3c3ccccc32)c1C | active: 43%
COc1cc(NS(=O)(=O)c2cc(Br)cc3c2N(C(=O)C2CC2)CC3)cc(OC)c1 | inactive: 99%
CCNC(=S)N1CCN(c2ccccc2)CC1 | inactive: 98%
COc1ccccc1N1CCN(C(=O)CSc2nc3ccccc3nc2Cc2ccc(C)cc2)CC1 | inactive: 55%
CNc1nc2c(c(=O)n(C)c(=O)n2C)n1CC(O)COc1ccc(OC)cc1 (centres undefined) | inactive: 67%
CCCSc1nc2sc3c(c2c(=O)n1-c1ccc(C)c(Cl)c1)CCN(C(C)=O)C3 | inactive: 81%
CN(C(=O)c1cc2nc(-c3ccc4c(c3)OCO4)cc(C(F)(F)F)n2n1)c1ccc(OC(F)(F)F)cc1 | inactive: 60%
Cn1nc(C(=O)NCCc2ccc(Cl)cc2)c2c1-c1ccccc1SC2 | inactive: 69%
COc1cccc(C(=O)NC2CC3CCCC(C2)N3CC(=O)Nc2ccc(N(C)C)cc2)c1 (centres undefined) | inactive: 89%
CCOC(=O)C1=C(CN2CCN(C)CC2)NC(=O)NC1c1ccc(F)cc1 (centres undefined) | inactive: 79%
